Results: patent publication US20240101686A1 (SIMCERE ZAIMING PHARMACEUTICAL, published 2024)

What was measured:
human EGFR on cells [1] = biological target: T1, human EGFR on cells (human, UniProt P00533)
[2] = biological target: T2, human EGFR-His-tagged fusion protein (human, UniProt P00533 partial chain)
T2 construct: extracellular domain; bought; also called human EGFR protein; human EGFR-His protein

[3] = biological target: T2, human EGFR-His-tagged fusion protein; remark: listed apart in the source
[4] = biological target: T2, human EGFR-His-tagged fusion protein; remark: listed apart in the source
[5] = biological target: T2, human EGFR-His-tagged fusion protein; remark: listed apart in the source
[6] = biological target: T2, human EGFR-His-tagged fusion protein; remark: listed apart in the source
[7] = biological target: T2, human EGFR-His-tagged fusion protein; remark: listed apart in the source
[8] = biological target: T2, human EGFR-His-tagged fusion protein; remark: listed apart in the source
[9] = biological target: T2, human EGFR-His-tagged fusion protein; remark: listed apart in the source
pepvIII polypeptide = biological target: T3, pepvIII polypeptide (human); test: ELISA on coated pepvIII
T3 construct: synthetic peptide (GL Biochem); also called Leu25-His37 polypeptide
T3 peptide: LEEKKGNYVVTDH

human EGFR on cells [10] = biological target: T1, human EGFR on cells; remark: listed apart in the source
Her2 protein [11] = biological target: T4, Her2 protein (human, UniProt P04626 partial chain)
T4 construct: Bought protein; also called human Her2 protein

Her2 protein [12] = biological target: T4, Her2 protein; remark: listed apart in the source
Her2 protein [13] = biological target: T4, Her2 protein; remark: listed apart in the source
Her2 protein [14] = biological target: T4, Her2 protein; remark: listed apart in the source
Her2 protein [15] = biological target: T4, Her2 protein; remark: listed apart in the source
Her2 protein [16] = biological target: T4, Her2 protein; remark: listed apart in the source
monkey EGFR protein [17] = biological target: T5, monkey EGFR protein (cynomolgus monkey, UniProt P55245 partial chain (rhesus entry))
T5 construct: Bought protein (SB 90285-C08H); also called cynomolgus monkey EGFR

Her2 protein [18] = biological target: T4, Her2 protein; remark: listed apart in the source
human EGFR protein [19] = biological target: T6, human EGFR protein (human, UniProt P00533 partial chain)
T6 construct: also called human EGFR-His; human EGFR-ECD protein; not shown: His tag

Her2 protein [20] = biological target: T4, Her2 protein; remark: listed apart in the source
human EGFR protein [21] = biological target: T6, human EGFR protein; remark: listed apart in the source
murine EGFR protein = biological target: T7, murine EGFR protein (murine, UniProt Q01279 25-647)
T7 construct: Bought protein

monkey EGFR protein [22] = biological target: T5, monkey EGFR protein; remark: listed apart in the source
[23] = biological target: T8, human EGFRvIII-His tag protein (human, UniProt P00533 partial chain)
T8 construct: Made in HEK293E, purified on nickel column; also called human EGFRvIII protein; not shown: His tag

monkey EGFR on cells = biological target: T9, monkey EGFR on cells (cynomolgus monkey, UniProt P55245 (rhesus entry)); test: FACS on HEK293T-monkey EGFR cells
T9 construct: also called HEK293T-monkey EGFR

B1: S008-NB148-77 (Fc fusion)
chain: EVQVVESGGGLVQAGGSLRLSCVASGFDFSDSVMGWYRQAPGKQREAVAIISSVGQSNYRDSVQGRFTVSRSNTENTMYLQMDSLKPEDTAIYYCKKFGPGEYWGQGTQVTVSS[human IgG1 Fc with changes not shown]
notes: VHH-Fc (VHH, human IgG1 hinge, human IgG1 Fc)
EC50 (human EGFR on cells [1]): 1.16 nM | Max MFI (human EGFR on cells [1]): 19900 | OD450 [2]: 2.18 | OD450 [3]: 1.9 | OD450 [4]: 1.78 | OD450 [5]: 0.67 | OD450 [6]: 0.35 | OD450 [7]: 2.07 | OD450 [8]: 0.13 | OD450 [9]: 0.06 | binding result (pepvIII polypeptide): no binding (tested: 100 nM) | EC50 (human EGFR on cells [10]): 3.96 nM | Max MFI (human EGFR on cells [10]): 16100

B2: S008-NB148-2 (Fc fusion)
chain: EVQVVESGGGLVQAGGSLRLSCAASGSTFSSYAMTWYRQAPGKQRELVAAISSGGSTNYAASVKGRFTISRDNAKNTLYLQMNTLKPEDTAVYYCNTDWGNGFSAEYDYWGQGTQVTVSS[human IgG1 Fc with changes not shown]
notes: Tested as VHH-Fc; order VHH-hinge-Fc inferred
OD450 (Her2 protein [11]): 0.12 | OD450 (Her2 protein [12]): 0.11 | OD450 (Her2 protein [13]): 0.1 | OD450 (Her2 protein [14]): 0.13 | OD450 (Her2 protein [15]): 0.11 | OD450 (Her2 protein [16]): 0.07 | binding result (monkey EGFR protein [17]): no binding (tested: 200 nM (highest antigen concentration)) | OD450 (Her2 protein [18]): 0.07 | Kd (human EGFR protein [19]): 521 nM | koff (human EGFR protein [19]): 0.0052 s⁻¹ | kon (human EGFR protein [19]): 9980 M⁻¹ s⁻¹ | OD450 (Her2 protein [20]): 0.17 | EC80 (human EGFR protein [21]): 15.2 µg/mL

B3: S008-NB148-5 (Fc fusion)
chain: QLQLVESGGGLVQAGGSLRLSCAVSISTFTTNGWDWYRQAPGKQRELVALISNDGTTTYTDSVKGRFTISRDGAKNTVYLQMNNLKPEDTAVYYCNTIPPAGSWGQGTQVTVSS[human IgG1 Fc with changes not shown]
notes: as for B2
binding result (murine EGFR protein): no binding (tested: 200 nM (highest antigen concentration)) | OD450 (Her2 protein [11]): 0.12 | OD450 (Her2 protein [12]): 0.1 | OD450 (Her2 protein [13]): 0.18 | OD450 (Her2 protein [14]): 0.18 | OD450 (Her2 protein [15]): 0.11 | OD450 (Her2 protein [16]): 0.32 | Kd (monkey EGFR protein [22]): 3.25 nM | koff (monkey EGFR protein [22]): 0.000158 s⁻¹ | kon (monkey EGFR protein [22]): 48700 M⁻¹ s⁻¹ | OD450 (Her2 protein [18]): 0.09 | Kd (human EGFR protein [19]): 9.75 nM | koff (human EGFR protein [19]): 0.000325 s⁻¹ | kon (human EGFR protein [19]): 33300 M⁻¹ s⁻¹ | OD450 (Her2 protein [20]): 0.11 | EC80 (human EGFR protein [21]): 20.1 µg/mL | Kd [23]: 2.98 nM | koff [23]: 9.47e-05 s⁻¹ | kon [23]: 31800 M⁻¹ s⁻¹

B4: S008-NB149-12 (Fc fusion)
chain: QVQLVESGGGLVQPGGSLRLSCVVSESISVINAMTWYRQAPGKQRELVALISRGGSTNYADSVKGRFTISRDNAKNSVYLQMNSLKPEDTALYYCNVVPPLGSWGQGTQVTVSS[human IgG1 Fc with changes not shown]
notes: as for B2
binding result (murine EGFR protein): no binding (tested: 200 nM (highest antigen concentration)) | OD450 (Her2 protein [11]): 0.1 | OD450 (Her2 protein [12]): 0.13 | OD450 (Her2 protein [13]): 0.11 | OD450 (Her2 protein [14]): 0.17 | OD450 (Her2 protein [15]): 0.15 | OD450 (Her2 protein [16]): 0.15 | Kd (monkey EGFR protein [22]): 8.3 nM | koff (monkey EGFR protein [22]): 0.000461 s⁻¹ | kon (monkey EGFR protein [22]): 55600 M⁻¹ s⁻¹ | OD450 (Her2 protein [18]): 0.09 | Kd (human EGFR protein [19]): 39 nM | koff (human EGFR protein [19]): 0.0017 s⁻¹ | kon (human EGFR protein [19]): 43700 M⁻¹ s⁻¹ | OD450 (Her2 protein [20]): 0.14 | EC80 (human EGFR protein [21]): 2.2 µg/mL | Kd [23]: 7.89 nM | koff [23]: 0.000475 s⁻¹ | kon [23]: 60200 M⁻¹ s⁻¹

B5: S008-NB149-15 (Fc fusion)
chain: QLQLVESGGGLVRPGGSLRLSCAASGSIFSRSGATWYRQAPGKQRELVALLTRDGHTDYPVVSVKGRFTISKDNAKNTVYLQMNSLQPEDTAVYYCNAIPPLGSWGRGTQVTVSS[human IgG1 Fc with changes not shown]
notes: as for B2
binding result (murine EGFR protein): no binding (tested: 200 nM (highest antigen concentration)) | OD450 (Her2 protein [11]): 0.15 | OD450 (Her2 protein [12]): 0.16 | OD450 (Her2 protein [13]): 0.13 | OD450 (Her2 protein [14]): 0.18 | OD450 (Her2 protein [15]): 0.13 | OD450 (Her2 protein [16]): 0.16 | Kd (monkey EGFR protein [22]): 8.3 nM | koff (monkey EGFR protein [22]): 0.000679 s⁻¹ | kon (monkey EGFR protein [22]): 81800 M⁻¹ s⁻¹ | OD450 (Her2 protein [18]): 0.2 | Kd (human EGFR protein [19]): 45.9 nM | koff (human EGFR protein [19]): 0.00695 s⁻¹ | kon (human EGFR protein [19]): 151000 M⁻¹ s⁻¹ | OD450 (Her2 protein [20]): 0.17 | EC80 (human EGFR protein [21]): 2.4 µg/mL | Kd [23]: 39.1 nM | koff [23]: 0.0167 s⁻¹ | kon [23]: 427000 M⁻¹ s⁻¹

B6: S008-NB149-22 (Fc fusion)
chain: QVQLVESGGGLVQAGGSLRLSCVASGRFPSIYRMAWFRQAPGKERDFVAAINWGGTATYYEDSVKGRFTISRDNTKNTVWLQMNSLKPEDTAVYYCAAGTGTTYTPQRGDAYGYWGQGTQVTVSS[human IgG1 Fc with changes not shown]
notes: as for B2
binding result (murine EGFR protein): no binding (tested: 200 nM (highest antigen concentration)) | OD450 (Her2 protein [11]): 0.16 | OD450 (Her2 protein [12]): 0.08 | OD450 (Her2 protein [13]): 0.08 | OD450 (Her2 protein [14]): 0.17 | OD450 (Her2 protein [15]): 0.12 | OD450 (Her2 protein [16]): 0.11 | Kd (monkey EGFR protein [22]): 9.55 nM | koff (monkey EGFR protein [22]): 0.000685 s⁻¹ | kon (monkey EGFR protein [22]): 71700 M⁻¹ s⁻¹ | OD450 (Her2 protein [18]): 0.11 | Kd (human EGFR protein [19]): 120 nM | koff (human EGFR protein [19]): 0.00102 s⁻¹ | kon (human EGFR protein [19]): 8490 M⁻¹ s⁻¹ | OD450 (Her2 protein [20]): 0.12 | EC80 (human EGFR protein [21]): 4.6 µg/mL | Kd [23]: 30.7 nM | koff [23]: 0.00142 s⁻¹ | kon [23]: 46400 M⁻¹ s⁻¹

B7: S008-NB148-2 (Fc fusion)
chain: EVQVVESGGGLVQAGGSLRLSCAASGSTFSSYAMTWYRQAPGKQRELVAAISSGGSTNYAASVKGRFTISRDNAKNTLYLQMNTLKPEDTAVYYCNTDWGNGFSAEYDYWGQGTQVTVSS[human IgG1 Fc with changes not shown]
notes: as for B1
EC50 (human EGFR on cells [1]): 28.1 nM | Max MFI (human EGFR on cells [1]): 9890 | OD450 [2]: 2.8 | OD450 [3]: 2.61 | OD450 [4]: 1.05 | OD450 [5]: 0.19 | OD450 [6]: 0.05 | OD450 [7]: 2.16 | binding result (monkey EGFR on cells): no binding | OD450 [8]: 0.06 | OD450 [9]: 0.05 | Max MFI (human EGFR on cells [10]): 12700

Like-named read-outs stand apart in the source and are kept apart here.
